Results from the RNAGym collection of RNA variant scans (doi:10.7554/elife.90254).
The source gives no read counts; variants with many changes may rest on few reads.

B1: LINE1-mini (parent)
chain: GGCAGAGCUCAACACAGCGUGGCAAAGUGGCUGUGGCUAGACUGCC

Variants of: B1
Experiment: self-cleavage, relative activity (ratio to wild type); higher = more cleavage; in vitro, sequencing; the parent is a self-cleaving ribozyme
In the case of C10U G30C C42A, the self-cleavage is reported as 0.08.
In the case of U28C C37A C45U, the self-cleavage is reported as 0.03.
With C3U C8G U32A C42G U43A the self-cleavage was 0.2.
Variant A4G G7C A12C A14C has a self-cleavage of 0.02.
C23U G35A G36U showed a self-cleavage of 0.32.
Variant A12U G29C U32A G36U C45A C46G has a self-cleavage of 0.09.
A4C C18G A25C A26U A41G gave a self-cleavage of 0.01.
Work on C8G A11C C13U G33U G35U G40A yielded a self-cleavage of 0.02.
A25U G36A U38A C42G gave a self-cleavage of 0.03.
Work on G2A G21A G36U C42A yielded a self-cleavage of 0.04.
For G2C C10A G22C, the self-cleavage was 0.01.
Variant A4C U20G C23G has a self-cleavage of 0.07.
With G2A G7U C18U C31U C42G the self-cleavage was 0.1.
For G21U G40A C46G, the self-cleavage was 0.12.
G17A C23U G36C C45G gave a self-cleavage of 0.01.
For A4C C13U G17A G19U, the self-cleavage was 0.02.
G5C A16G G21C A26U showed a self-cleavage of 0.05.
Variant G7U C10G A14C C46U has a self-cleavage of 0.01.
Variant A4G C8U C15U G29C C37G has a self-cleavage of 0.04.
For A11U G29A C42A, the self-cleavage was 0.02.
For G5A A16G G19U G27U G30U G44A, the self-cleavage was 0.02.
In the case of G7A C10U A11U A16G, the self-cleavage is reported as 0.01.
Variant G29A U38A A41G has a self-cleavage of 0.09.
In the case of C3G C13U G36U C46A, the self-cleavage is reported as 0.23.
C3U G5A G29U showed a self-cleavage of 0.33.
Work on A4C C10U U20C C31A C42U yielded a self-cleavage of 0.01.
Variant A16U G22U C23A has a self-cleavage of 0.5.
A6U C8G G29U G33C gave a self-cleavage of 0.12.
With A4U C10U G40C the self-cleavage was 0.04.
With C10G G22A G33A U34G U38A the self-cleavage was 0.01.
For C3G A16C G33U G35A A41U U43C, the self-cleavage was 0.
U9G G36A A39U showed a self-cleavage of 0.15.
G27U C31U G33U showed a self-cleavage of 0.04.
For C10U A14C C37A, the self-cleavage was 0.05.
C18A U38G C42A U43C showed a self-cleavage of 0.
For G2C C23G A25C, the self-cleavage was 0.12.
In the case of C10G C15U G17C G29U U32A G36A U38G, the self-cleavage is reported as 0.01.
Work on G5C U9A C10U C23U yielded a self-cleavage of 0.04.
Work on A4C G17U C18A U20G yielded a self-cleavage of 0.01.
For A39G G44A C46A, the self-cleavage was 0.26.
A12C C13G C23G G30C gave a self-cleavage of 0.01.
A16G G17A U32A gave a self-cleavage of 0.03.
With C3G G22C A26U the self-cleavage was 0.16.
Variant A14U G27C A41U has a self-cleavage of 0.02.
Variant A25U U28G G40A C42U has a self-cleavage of 0.13.
In the case of C10U G21U G40U, the self-cleavage is reported as 0.02.
For C10A C18G G22A U28G C42G U43A, the self-cleavage was 0.01.
C15U U32C G36C A41G G44C showed a self-cleavage of 0.03.
Variant A6C C13U C15G G22U C23U G29C C42A has a self-cleavage of 0.01.
With U20A A26C C46U the self-cleavage was 0.24.
Variant A6C C10U G30U C42G has a self-cleavage of 0.01.
For A4G C8U U34A, the self-cleavage was 0.04.
With C10U U34G U38A C45U the self-cleavage was 0.04.
C8G C18U G30U showed a self-cleavage of 0.12.
For G17A G19A C46G, the self-cleavage was 0.3.
With A4G A6C C37G the self-cleavage was 0.34.
Work on G17A C23G C42A yielded a self-cleavage of 0.02.
U28G G36U C37A gave a self-cleavage of 0.05.
Work on G7U A25C G30A A41G yielded a self-cleavage of 0.05.
A12U U32A G36U C46A showed a self-cleavage of 0.
Work on G1A G36C C37U A39G A41U yielded a self-cleavage of 0.02.
With G1U C3G A24G C42U the self-cleavage was 0.34.
In the case of A4C C8U A16C G27C G33U, the self-cleavage is reported as 0.13.
A11U G19C U38A C42G G44C gave a self-cleavage of 0.01.
With C18A G27A G33A the self-cleavage was 0.02.
In the case of G5C C18A G21U, the self-cleavage is reported as 0.06.
Work on C3U G19U U28A G33A C45A yielded a self-cleavage of 0.02.
For C13G G30A A41U G44U, the self-cleavage was 0.02.
With C13G G19U U20G G29C U34A the self-cleavage was 0.03.
Work on U9C U32G C37U yielded a self-cleavage of 0.03.
With U9A A25G G33A the self-cleavage was 0.22.
Variant A4G U20A U43A has a self-cleavage of 0.09.
Variant A16U A24U A26U has a self-cleavage of 0.43.
Work on U9C A11U C31A G36C yielded a self-cleavage of 0.02.
In the case of A11C A24G A41U, the self-cleavage is reported as 0.07.
For A14C G40U C45A, the self-cleavage was 0.07.
With A4U A14G G19C G35A U43C the self-cleavage was 0.02.
With A4U C13U C18U C46A the self-cleavage was 0.05.
G27U U38G U43C gave a self-cleavage of 0.01.
For A4G A26C G27C G40A, the self-cleavage was 0.09.
For G2A C3U A41C, the self-cleavage was 0.14.
C15U U28C A39C gave a self-cleavage of 0.04.
In the case of A6U A25C C46A, the self-cleavage is reported as 1.71.
Work on G5A G27C C31U yielded a self-cleavage of 0.04.
Variant A4U C37U A41U C46A has a self-cleavage of 0.02.
For G2C A16G G21C A25G, the self-cleavage was 0.09.
A24U A25U A26U U34A G40A showed a self-cleavage of 0.03.
G5C A16U A25C C31G G33A G35U showed a self-cleavage of 0.01.
For C3A G5U U34C G35U, the self-cleavage was 0.11.
G7C G22A G27C G40C showed a self-cleavage of 0.04.
A6G G19C U28A A41U G44A gave a self-cleavage of 0.
G7C C42U G44C C45A gave a self-cleavage of 0.02.
With G7A U20A G21U the self-cleavage was 0.26.
A6U A14G C45G gave a self-cleavage of 0.25.
C3G G21A A24G G35U gave a self-cleavage of 0.09.
G19A G30A U32C gave a self-cleavage of 0.12.
With G35U C42G C45A the self-cleavage was 0.05.
Variant C23U G33U C37A C46G has a self-cleavage of 0.
With U9C G19A G22U A41C C42A the self-cleavage was 0.03.
G7A C8A A24U A25C G33U gave a self-cleavage of 0.14.
A11U A14C G19C C31U G44C gave a self-cleavage of 0.01.
For G2C C10A C23U, the self-cleavage was 0.01.
For G1C C10U G33A U43G, the self-cleavage was 0.01.
Work on G2U G22C A41G yielded a self-cleavage of 0.01.
Variant U9A A16U A24C C31A has a self-cleavage of 0.02.
In the case of G7C C13G G30U, the self-cleavage is reported as 0.1.
For G17C G36U A39C C45U, the self-cleavage was 0.02.
For G2U G29C U32G G40A C45A, the self-cleavage was 0.
In the case of C15A G22A C31A G40C C42A, the self-cleavage is reported as 0.01.
A4U G5A G17A G19U G35A U43C C45G showed a self-cleavage of 0.01.
Variant G2A A4G G22C U43A has a self-cleavage of 0.06.
U20A A25C G40A A41G showed a self-cleavage of 0.09.
Variant C13G C37G U38G has a self-cleavage of 0.02.
In the case of G1A C31A G33U, the self-cleavage is reported as 0.09.
In the case of C8G G19A U34C, the self-cleavage is reported as 0.1.
In the case of A12C U38C G44C C45G, the self-cleavage is reported as 0.04.
A6U G27C U28C G29C U32A G44A gave a self-cleavage of 0.11.
U9C A16U G30A gave a self-cleavage of 0.04.
G5C G7C C8G gave a self-cleavage of 0.07.
Work on C3U C15U G40A C45U yielded a self-cleavage of 0.08.
Variant G2U A11C C15G C46A has a self-cleavage of 0.03.
In the case of C3A A26C C31U G40U G44U, the self-cleavage is reported as 0.01.
In the case of A4G G7U A14C C31A U38A A39G C42A, the self-cleavage is reported as 0.03.
Variant G2U C3A C18G G21C G29C G40A has a self-cleavage of 0.04.
Variant G7U A25U G27A G29A A41C has a self-cleavage of 0.05.
With A16C A41G C42A the self-cleavage was 0.12.
In the case of G2A G5C A11G G17A G30A, the self-cleavage is reported as 0.07.
With G1A A25C G27C U28G C31U the self-cleavage was 0.48.
Variant C3G G21A U28G has a self-cleavage of 0.81.
With G1U G5U G21U G40U the self-cleavage was 0.41.
For U9G G35U G40C G44C, the self-cleavage was 0.03.
A6U G7U U9C A39U showed a self-cleavage of 0.12.
With G5U U9C G21C G36U the self-cleavage was 0.02.
For G29C U32A G35A, the self-cleavage was 0.05.
C23U G27A U34A G40U gave a self-cleavage of 0.08.
Work on G22U C23G G35A yielded a self-cleavage of 0.14.
With C10G U20C C23U A25G the self-cleavage was 0.07.
With A6C C10U G19A A26U A41U the self-cleavage was 0.03.
With U20G G27A G29A G35A the self-cleavage was 0.21.
Variant G5C U20G G27U G29U A39C has a self-cleavage of 0.02.
Work on C13U C18A G27U yielded a self-cleavage of 0.
For G1A G5A A14C A24U G30A, the self-cleavage was 0.14.
Variant G1U U9A G35U has a self-cleavage of 0.
With G5C C23U G29C G40U the self-cleavage was 0.03.
C10A C18A A24U A26U G33U C37A gave a self-cleavage of 0.01.
Variant A26C G33C C37A has a self-cleavage of 0.06.
C3A G19C C23U G30C C42U gave a self-cleavage of 0.13.
In the case of G7A U9A A16C C42U, the self-cleavage is reported as 0.1.
For G5A A14U G19A G36C, the self-cleavage was 0.03.
Work on G1A C8A A25C G36U C37A yielded a self-cleavage of 0.38.
Variant U9G A16U G33A A39C U43C has a self-cleavage of 0.03.
In the case of G2A G5U G21U G40A C42U, the self-cleavage is reported as 0.12.
In the case of C8A G19C G30A, the self-cleavage is reported as 0.13.
G5C C15G U32C C45U showed a self-cleavage of 0.01.
In the case of C15G C23A G27C U28A, the self-cleavage is reported as 0.34.
In the case of G21A A41U C46G, the self-cleavage is reported as 0.25.
In the case of G1A C8A U34G, the self-cleavage is reported as 0.26.
For C8A C13A G19U, the self-cleavage was 0.22.
Work on C3G G7C C37G yielded a self-cleavage of 0.04.
C3G C10A G21U U43C C45A gave a self-cleavage of 0.02.
In the case of C18G G19A U28G, the self-cleavage is reported as 1.39.
C8G G27C G36C C37A showed a self-cleavage of 0.18.
For G7C C18U G30A G36C, the self-cleavage was 0.32.
For G27C C31A G35C A39C A41C, the self-cleavage was 0.02.
Variant A4C A12U C23U G27C U38C has a self-cleavage of 0.01.
With G33U G40U A41U C42A the self-cleavage was 0.06.
For A4C A12U C18A, the self-cleavage was 0.01.
